Experimental data as given in PubChem BioAssay AID686978 (National Center for Advancing Translational Sciences (NCATS), 2013).
Among all 420,000 compounds or so, about 64,000 (15%) were called active. The inconclusive results got no clear call from the source; some entries with a clear call stand among them for comparison. Calls follow the shape of the dose curve; as a rule, active = well fitted inhibition curve with a large enough effect; inconclusive = small, poorly fitted or top-dose-only effect; inactive = flat fitted curve, though single readings scatter. Potencies of inconclusive entries are left out as doubtful fits.

Test: qHTS for Inhibitors of human tyrosyl-DNA phosphodiesterase 1 (TDP1): qHTS in cells in absence of CPT; also: nearly all actives have a fitted effect of over 55% in size
Details: DT40 Tdp1-/- hTDP1 cells, no CPT, ATP luminescence, 48 h; activity change, negative = growth inhibition: at 46.2 µM (top of the series) unless noted
Summary of the method: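 Compound effects on proliferation are scored in DT40 Tdp1-/-;hTDP1 cells in the absence of CPT. ATP levels (CellTiter-Glo luminescence) are recorded after a ≥48 hr, 37 °C incubation.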
% is scaled to controls: 0 for no effect and ±100 for the full control effect; potency is read from the fitted curve at half-maximal effect; tags tell the direction and shape of the fitted curve.

With CCCC(C)NS(=O)(=O)c1ccc(OC)c(C)c1 (configuration not stated) as the compound, how does the Potency read?
The Potency was “inactive”.

With CCc1ccccc1NC(=O)c1cccc(Oc2ccc([N+](=O)[O-])cc2Cl)c1 as the compound, how does the Potency read?
Its Potency is inconclusive [inhibitor, single point].

Which Potency does the source give for CC1=C(C(=O)OCCOC(C)C)C(c2cccc3ccccc23)NC(=O)N1 (configuration not stated) here?
The Potency was inconclusive [inhibitor, single point].

With O=C(NCCCc1ccccc1)c1ccncc1 as the compound, how does the Potency read?
Its Potency is inconclusive [inhibitor, partial curve, poor fit].

With CCOC(=O)c1c(CSc2ccccc2)n(C)c2ccc(O)c(CN3CCN(C)CC3)c12 as the compound, how does the Potency read?
The Potency was inconclusive [inhibitor, single point].

For CS(=O)(=O)N1CCC[C@@]2(CCN(Cc3ccccc3)C2)C1, which Potency is on record?
The Potency was “inactive”.

For c1nc(NC2CCCCCC2)c2[nH]cnc2n1, which Potency is on record?
Its Potency is active: 23.1 µM.

With Cc1ccc(NCc2cccn2-c2nnc(N3CCC(C(=O)NCCc4ccccc4)CC3)s2)cc1 as the compound, how does the Potency read?
The Potency was inconclusive [inhibitor, single point].

With Cc1cccc(NC(=O)c2ccc([N+](=O)[O-])s2)c1C as the compound, how does the Potency read?
The Potency was active: 20.6 µM.

With COc1cccc(Nc2nc(C(N)COCc3ccccc3)cs2)n1 (configuration not stated) as the compound, how does the Potency read?
The Potency was inconclusive [inhibitor, single point].

Which activity change, negative = growth inhibition does the source give for COc1ccccc1S(=O)(=O)N1CCN(S(=O)(=O)c2cccs2)CC1 here?
The activity change, negative = growth inhibition was inconclusive: -31.5% [inhibitor].

Which Potency does the source give for COc1ccc(-c2c3c(nc4sc(C(=O)Nc5ccc(Cl)cc5)c(N)c24)CC(C)(C)CC3=O)cc1 here?
The Potency was active: 8.2 µM.

With COc1ccc2nc(NC(=O)CSc3nc4ccccc4o3)sc2c1 as the compound, how does the Potency read?
The Potency was inconclusive [inhibitor, partial curve, poor fit].

For CCOC(=O)C1(CCc2ccccc2)CCN(Cc2ccn[nH]2)CC1, which Potency is on record?
The Potency was inconclusive [inhibitor, single point].

Which Potency does the source give for Cc1cc(=O)[nH]c(SCC(=O)N2C(C)CCCC2C)n1 (configuration not stated) here?
Its Potency is “inactive”.

Which Potency does the source give for Cc1ccc(S(=O)(=O)Oc2ccccc2/C=N/O)cc1 here?
Its Potency is “inactive”.

Which Potency does the source give for COc1ccc(CNC(=O)C(=O)NCCC2CCCCN2S(=O)(=O)c2ccccc2)cc1 (configuration not stated) here?
Its Potency is inconclusive [inhibitor, single point].

For Cn1cc(-c2cnc3c(NC=O)cc(-c4cccc(C(F)(F)F)c4)cn23)cn1, which Potency is on record?
Its Potency is active: 20.6 µM.

Which Potency does the source give for COc1ccc(C(C(=O)NC(C)(C)C)n2c(COc3ccc(C)cc3)nc3ccccc32)cc1 (configuration not stated) here?
The Potency was inconclusive [inhibitor, single point].

With O=C(CCNS(=O)(=O)c1cccs1)Nc1ccccc1F as the compound, how does the Potency read?
Its Potency is “inactive”.

Which Potency does the source give for CN(C)c1ccc(CNC(=O)CCC(=O)N2Cc3ccccc3Oc3ncccc32)cc1 here?
The Potency was inconclusive [inhibitor, single point].

With CCOC(=O)C1(Cc2cccc(Cl)c2)CCCN(C(=O)CCC(=O)N(C)C)C1 (configuration not stated) as the compound, how does the Potency read?
The Potency was inconclusive [inhibitor, single point].

For C/C(=C\C1CCCCC1)C(NC(=O)c1ccc(C(F)(F)F)cc1)c1ccc(-c2ccccc2)cc1 (configuration not stated), which Potency is on record?
The Potency was inconclusive [inhibitor, single point].

With COc1ccccc1-c1nccc(NCc2cccs2)n1 as the compound, how does the Potency read?
Its Potency is inconclusive [inhibitor, partial curve].

With CCc1cccc(C)c1NC(=O)CN1C(=O)c2c(c3ccccc3n2C)C1c1ccc(OC)cc1 (configuration not stated) as the compound, how does the Potency read?
Its Potency is active: 29.1 µM.

With Clc1ccc(CNc2nc3ccccc3c3nc(-c4cccnc4)nn23)cc1 as the compound, how does the Potency read?
The Potency was inconclusive [inhibitor, single point].

With O=C1C(Cl)=C(N2CCOCC2)C(=O)N1c1cccc(Cl)c1 as the compound, how does the activity change, negative = growth inhibition read?
Its activity change, negative = growth inhibition is inconclusive: -31.4% [inhibitor].

Which Potency does the source give for CC1(Cc2ccccc2C#N)C(=O)Nc2ccc(-c3ccccc3)cc21 (configuration not stated) here?
Its Potency is inconclusive [inhibitor, single point].

Which Potency does the source give for CC1(C(=O)NS(=O)(=O)c2ccccc2)CCN1C(=O)CC(c1ccccc1)c1ccccc1 (configuration not stated) here?
Its Potency is inconclusive [inhibitor, single point].

Which Potency does the source give for CCOc1ccc(-c2csc(N)c2C(=O)OC)cc1 here?
Its Potency is inconclusive [inhibitor, single point].

Which Potency does the source give for O=C(Nc1nnc(-c2cc(Cl)ccc2Cl)o1)c1ccco1 here?
Its Potency is active: 16.4 µM.

With Cn1nnc2c(N3CCCCC3)ncnc21 as the compound, how does the Potency read?
The Potency was inconclusive [inhibitor, single point].

With O=c1c(CCc2ccccc2)nc2cnc(N3CCNCC3)nc2n1CCc1ccccc1 as the compound, how does the Potency read?
The Potency was inconclusive [inhibitor, single point].

Which Potency does the source give for CC(=O)Nc1ccc(C2CC(c3ccc(Cl)cc3)=NN2c2ccccc2)cc1 (configuration not stated) here?
The Potency was inconclusive [inhibitor, single point].

For CCOc1ccccc1NC(=O)CN(CCc1ccccc1)S(=O)(=O)c1ccc(C)cc1, which Potency is on record?
The Potency was active: 16.4 µM.

With CC(NC(=O)CN(C)CC(=O)Nc1ccc(Cl)c(C(F)(F)F)c1)c1ccccc1 (configuration not stated) as the compound, how does the Potency read?
Its Potency is active: 23.1 µM.

For COc1ccccc1CNC(=O)COC(=O)Cc1ccc(F)cc1, which Potency is on record?
The Potency was “inactive”.

With COc1ccc(C(=O)Nc2ccccc2C(=O)Nc2cccc(C)n2)cc1 as the compound, how does the Potency read?
Its Potency is “inactive”.

With CN1C(=O)N(CC(=O)N2CCN(S(=O)(=O)c3ccc4c(c3)CCC4)CC2)C(=O)C12CCCCC2 as the compound, how does the Potency read?
The Potency was inconclusive [inhibitor, single point].

For O=C(Nc1ccc(F)c(Cl)c1)Nc1nnc([C@H]2C[C@H](O)[C@@H](CO)O2)s1, which Potency is on record?
The Potency was “inactive”.

For CSc1nc(N2CCOCC2)c2c3c(sc2n1)CCCC3, which Potency is on record?
Its Potency is active: 13 µM.

For CCN1CCCC1CNC(=O)CCNC(=O)c1cc(OC)c(OC)c(OC)c1 (configuration not stated), which Potency is on record?
Its Potency is “inactive”.

With Cc1ccc2cc(C#N)c(NCCNC(=S)NCCCN(C)C)nc2c1C as the compound, how does the Potency read?
The Potency was active: 25.9 µM.

Which Potency does the source give for CCC(C(=O)Nc1cc(C(=O)Nc2cc(C)ccn2)ccc1Cl)c1ccccc1 (configuration not stated) here?
The Potency was inconclusive [inhibitor, single point].

With Cc1cccc(C)c1NC(=O)C(c1ccc(Cl)cc1Cl)N1CCCCC1 (configuration not stated) as the compound, how does the Potency read?
The Potency was active: 29.1 µM.

With COc1ccc(OCC(=O)Sc2ccc(C)cc2)cc1 as the compound, how does the Potency read?
The Potency was active: 23.1 µM.

Which Potency does the source give for Cc1nc2ccccc2nc1CN1CCOc2ccc(C(C)(O)COc3ccccc3)cc2C1 (configuration not stated) here?
The Potency was inconclusive [inhibitor, single point].
